# The other results are listed elsewhere or left out. Each Rep nickase domain was tested in vitro on the same pool of single strands at 3 µM enzyme and 37 °C for 1 h; the strands have 90 letters, of which the middle is given. The score is log2 (uncut reads / reads without enzyme); the lower, the more was cut; hits are not called. Because reads are shares of a total, they shift together, so uncut sequences can rise above 0 when many others are cut.
# Test system: T1, Rep nickase domain of tomato golden mosaic virus
# T1 sequence (Rep 1-124, printed without the tag): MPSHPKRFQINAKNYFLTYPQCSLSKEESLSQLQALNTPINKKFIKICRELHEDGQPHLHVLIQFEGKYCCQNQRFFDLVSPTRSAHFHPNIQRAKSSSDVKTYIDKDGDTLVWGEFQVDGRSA
# Test: uncleaved DNA left, log2 of reads against the no-enzyme library (log2 ratio); higher = less cleavage (more negative = more Rep cleavage of the k-mer); sequences stand for … in CTCGTCCG…ACCGGAGA
# Experimental: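 A pool of 90-nt single-stranded DNAs with seven random bases just before the constant AC of the nick site (name = the seven bases) was cut by 3 µM recombinant His6-SUMO-tagged Rep nickase domain (300 nM DNA, 50 mM HEPES pH 8.0, 50 mM NaCl, 1 mM MnCl2, 1 h, 37 °C, three replicates). Uncut DNA was amplified and sequenced.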
row,Sequence,uncleaved DNA left (log2)
1,GATCAGC,0.0837
2,CATCGTC,-0.0498
3,TTGCATC,-0.0578
4,AATGACG,0.0186
5,GGGTGAC,0.177
6,GTCCCTC,0.0156
7,TATGGAT,0.0464
8,GGGCGTA,-0.0401
9,ACCAAAA,0.0399
10,GCAAACA,0.124
11,CTTTCGC,-0.213
12,GTACTTC,0.151
13,AATTTTG,-0.0431
14,TAGCCAC,-0.115
15,CGCCCGT,-0.0516
16,ATTGAAG,-0.0126
17,CTTTTGA,-0.0562
18,GCTTGAT,0.0579
19,GAGGACC,-0.0194
20,CAACAGC,0.0539

row,Sequence,uncleaved DNA left (log2)
1,TACCAGC,0.000808
2,AAGGGTC,0.199
3,ACAGGCT,0.0542
4,ATTCTGT,-0.145
5,CGGACTA,-0.097
6,CGAATGT,-0.112
7,GGCCGAC,0.0985
8,TCCCCAT,-0.0147
9,ACAAAGT,0.123
10,AGACCGG,0.102
11,GCCGTGC,0.0664
12,CGATTTC,-0.0151
13,ACCACTT,0.0536
14,CGATCAG,-0.0268
15,CGCTGCG,-0.198
16,TTGCTTT,0.02
17,TTTCCTG,0.0264
18,AGCCCCC,-0.0235
19,GGGGTCG,0.121
20,CGGACAA,-0.0698

# — the supplement of paper PMC7826260
